Assay results: PubChem BioAssay AID686970 (National Center for Advancing Translational Sciences (NCATS), 2013)
About 6,000 (1.7%) of roughly 360,000 compounds were called active. Inconclusive results, whose numbers are uncertain, are shown with a selection of clear calls. The call rests on the fitted dose curve; in most records, active means well fitted cell-killing curve with a large enough effect; inconclusive means small, poorly fitted or top-dose-only effect, or effect the other way; inactive means flat fitted curve, though single readings scatter. No potency is given beside an inconclusive call; the fits are too rough.
Potency means the concentration at half of the fitted maximal effect; tags describe the fitted curve by direction and shape.

Assay: qHTS for induction of synthetic lethality in tumor cells producing 2HG: qHTS for the HT-1080-NT fibrosarcoma cell line;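 further: NT is the 2HG producing partner of a matched IDH1 knockdown line; nearly all actives have a fitted effect of over 55% in size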;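 on activity, negative = less viability: 0% = DMSO-treated cells and -100% = media-only wells without cells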
Settings: HT-1080-NT fibrosarcoma viability, CellTiter-Glo ATP luminescence, 48 h; activity, negative = less viability: at 46.1 µM (top of the series) unless noted
Procedure, shortened: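 Read-out is CellTiter-Glo luminescence after 10 minutes at room temperature, following 48 hours' compound treatment of HT-1080-NT cells (750 cells/well, RPMI, 5% FBS, 37 degrees C).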
In the case of `Cc1cc2ncn(S(=O)(=O)N3CCCCC3)c2cc1C`, the Potency is reported as inconclusive [cytotoxic, single point]. For `c1ccc2cc(OCCCn3ccnc3)ccc2c1`, the “activity, negative = less viability” value was inactive: -1.27%. With `CN(C)c1ccc(/C=N/n2ncc3ccccc32)cc1` the Potency was inconclusive [cytotoxic, single point]. With `CCCCC(=O)NC(c1ccc(N(C)C)cc1)c1ccc2cccnc2c1O` (configuration not stated) the Potency was inconclusive [cytotoxic, single point]. For `O=C(CN1C(=O)NC(c2ccccc2)(c2ccccc2)C1=O)N1CCN(c2ccc(F)cc2)CC1`, the Potency was inconclusive [cytotoxic, partial curve]. In the case of `NC(Cc1ccc(OC(F)F)cc1)C(=O)O` (configuration not stated), the Potency is reported as inconclusive [rising, single point]. With `CCN(CC)CCN1C(=O)C(=O)/C(=C(/O)c2ccc(S(=O)(=O)N3CCOCC3)cc2)C1c1ccc(Cl)cc1` (configuration not stated) the “activity, negative = less viability” value was inactive: 0.224%. For `Cc1ccc(Nc2cc(C)nc3c(C)cccc23)cc1`, the Potency was inconclusive [cytotoxic, partial curve]. With `CCCN1Cc2cccc(C(=O)Nc3ccc(C)cc3)c2C1=O` the “activity, negative = less viability” value was inactive: 10.6%. With `CCc1nc(SCC(=O)c2ccc3c(c2)OCCO3)c2ccccc2n1` the Potency was inconclusive [cytotoxic, single point]. In the case of `CC(C)(C)c1ccc(C(=O)Nc2ccc(C(=O)NCc3cccnc3)cc2)cc1`, the Potency is reported as active: 1.64 µM. In the case of `C=CCn1c(CCNC(=O)c2cccs2)nnc1SCC(=O)c1ccc(Cl)cc1`, the Potency is reported as inconclusive [cytotoxic, single point]. With `O=C(O)c1cccc(N2C(=O)CSC2c2ccccc2)c1` (configuration not stated) the “activity, negative = less viability” value was inactive: 10.1%. With `CN(C)CCN(C(=O)c1ccc(S(=O)(=O)N2CCCC2)cc1)c1nc2ccc(Br)cc2s1` the Potency was inconclusive [cytotoxic, single point]. For `CCCCOC(=O)c1ccc(N/C(=N\S(=O)(=O)c2ccccc2)c2ccccc2)cc1`, the Potency was inconclusive [cytotoxic, single point]. For `O=C1c2ccc3c4c(ccc(c24)C(=O)N1CCCCO)C(=O)N(CCCCO)C3=O`, the Potency was active: 23.1 µM. For `COc1cc(OC)c2c(-c3ccccc3)cc(=O)oc2c1C(CCN1CCOCC1)c1ccc2c(c1)OCO2` (configuration not stated), the Potency was active: 23.1 µM. For `CC(=O)NC(=S)Nc1ccc(NC(=O)COc2ccc(Cl)cc2Cl)cc1`, the Potency was inconclusive [cytotoxic, single point]. In the case of `COc1ccccc1C(=O)NCC(=O)N(C)Cc1nc2ccccc2c(=O)[nH]1`, the “activity, negative = less viability” value is reported as inactive: 4.79%. For `Cc1[nH]nc(-c2cccnc2)c1N=NN(C)C`, the Potency was active: 20.6 µM. For `CCOc1ccc(CCNC(=O)C2=C(C)C(=O)OC23CCCCC3)cc1OCC`, the Potency was inconclusive [rising, partial curve, poor fit]. In the case of `COCCn1c(SCC(=O)Nc2ccc(F)cc2)nc2c(oc3ccccc32)c1=O`, the “activity, negative = less viability” value is reported as inactive: 6.22%. With `O=C(Nc1nnc(-c2ccccc2)o1)c1cc(-c2cccs2)nc2ccccc12` the Potency was inconclusive [cytotoxic, single point]. In the case of `Cc1c(NC(=O)CN2CCN(C(=O)c3ccco3)CC2)c(=O)n(-c2ccccc2)n1C`, the “activity, negative = less viability” value is reported as inactive: -4.06%. For `CN(C)c1cc(NC(=O)CNC(C)(C)CC(C)(C)C)c2ccccc2n1`, the Potency was inconclusive [cytotoxic, partial curve]. With `CCOc1ccc(S(=O)(=O)N2CCN(c3ccccc3F)CC2)c2cccnc12` the “activity, negative = less viability” value was inactive: -2.39%. In the case of `CCN(CC)CC(=O)Nc1sc2c(c1C(=O)c1ccccc1OC)CCC2`, the Potency is reported as inconclusive [cytotoxic, partial curve]. With `O=C(CN(C1CC1)S(=O)(=O)c1ccc(S(=O)(=O)NC2CCCCC2)cc1)Nc1ccccc1` the Potency was inconclusive [cytotoxic, single point]. In the case of `COC(=O)C(Cc1ccccc1)NC(=O)CNC(=O)c1ccc(Br)cc1` (configuration not stated), the “activity, negative = less viability” value is reported as inactive: -13.1%. For `COc1ccc(C(=O)Nc2ccccc2N2CCOCC2)cc1[N+](=O)[O-]`, the “activity, negative = less viability” value was inactive: 0.0185%. In the case of `Cc1cccc(C(=O)Nc2ccc(C(=O)/C=C/c3cccnc3)cc2)c1`, the Potency is reported as inconclusive [cytotoxic, single point]. With `O=C1CC(c2ccc(F)cc2)CC2=C1C=Nc1ccccc1N2` (configuration not stated) the Potency was inconclusive [cytotoxic, single point]. With `O=C(Nc1ccc(F)cc1)Nc1csc2ccccc12` the Potency was inconclusive [cytotoxic, single point]. With `Cc1nn(-c2ccccc2)c(=O)c2noc(C)c12` the Potency was inconclusive [rising, partial curve, poor fit]. For `COc1ccc(C(CNC(=O)c2cc(C)oc2C)N2CCOCC2)cc1` (configuration not stated), the “activity, negative = less viability” value was inactive: -4.81%. For `COc1ccc(C2=Nn3c(nnc3-c3ccc(OC)cc3)SC2)cc1`, the activity, negative = less viability was inconclusive: -62.3%. With `Cc1nnc(C)n1/N=C/c1cc(Br)cc(Br)c1O` the Potency was inconclusive [cytotoxic, single point]. For `CCc1ccc(N(CC(=O)N2CCCCCC2)S(C)(=O)=O)cc1`, the “activity, negative = less viability” value was inactive: 22%. In the case of `COc1ccc(-c2nn(-c3ccccc3)cc2/C=C/C(=O)OCC(=O)Nc2cccc(C#N)c2)cc1`, the Potency is reported as inconclusive [cytotoxic, single point]. For `Cc1ccc(NC(=O)CSc2nc(-c3ccco3)cc(C(F)(F)F)n2)cc1C`, the Potency was active: 10 µM. For `CCCOC1CCCN(C(=O)c2cc(COc3ccc(-n4cncn4)cc3)on2)C1` (configuration not stated), the “activity, negative = less viability” value was inactive: 1.84%. In the case of `CCc1sc(C(=O)Nc2ccc(N3CCOCC3)cc2)cc1C`, the Potency is reported as inconclusive [cytotoxic, partial curve]. For `Cc1ccc(CNCc2cc3c(C(C)(C)C)nn(-c4ccccc4)c3[nH]c2=O)cc1`, the Potency was inconclusive [cytotoxic, single point]. In the case of `ON=C1/C(=N\O)CC2(C/C1=N/O)OCCO2`, the Potency is reported as inconclusive [cytotoxic, single point]. For `CC(C)(C)NS(=O)(=O)c1ccc(OCC(=O)NCc2ccco2)cc1`, the “activity, negative = less viability” value was inactive: -1.31%. With `Cn1c(N)c(C(=O)COC(=O)c2cccc(S(=O)(=O)N3CCCCC3)c2)c(=O)n(C)c1=O` the “activity, negative = less viability” value was inactive: -1.01%. For `O=C(O)c1ccc(N=Nc2c(O)ccc3ncccc23)cc1`, the Potency was inconclusive [cytotoxic, single point]. For `CC1CC(=O)N(C)c2cc([N+](=O)[O-])ccc2N1` (configuration not stated), the “activity, negative = less viability” value was inactive: 11.1%. For `CCN(C(=O)CN1C(=O)c2ccc([N+](=O)[O-])cc2C1=O)C1CCCCC1`, the “activity, negative = less viability” value was inactive: 1.44%. In the case of `C(=C\c1ccccn1)/c1ccccn1`, the Potency is reported as inconclusive [rising, partial curve]. In the case of `O=C(COC(=O)/C=C/c1ccc([N+](=O)[O-])cc1)NC(c1ccccc1)c1ccccc1`, the “activity, negative = less viability” value is reported as inactive: -13.7%. For `O=C(NCCN1CCN(Cc2ccccc2Cl)CC1)Nc1ccccc1`, the “activity, negative = less viability” value was inactive: 2.15%. For `CC(CCc1ccc(O)cc1)NCCC(c1ccccc1)c1ccccc1` (configuration not stated), the Potency was active: 20.6 µM. With `Cc1ccccc1C(NC(=O)C1CCN(Cc2ccc(Oc3ccccc3)cc2)CC1)c1ccsc1` (configuration not stated) the Potency was active: 20.6 µM. With `C[C@@]12C(=O)N(c3ccc(Br)cc3)C(=O)N1[C@@H]1c3ccccc3OC[C@@H]1[C@H]2c1ccccc1` the “activity, negative = less viability” value was inactive: 2.45%. For `c1ccc(-c2nc3nonc3c3nc4ccccc4n23)cc1`, the Potency was inconclusive [cytotoxic, single point]. For `COc1ccc(-c2cc3nc(C)c(CCC(=O)NC(C)CCc4ccco4)c(C)n3n2)c(OC)c1` (configuration not stated), the Potency was inconclusive [cytotoxic, single point]. With `O=C(CN1C(=O)C2C3C=CC(C3)C2C1=O)OCC(=O)c1ccc(Cl)c([N+](=O)[O-])c1` (configuration not stated) the “activity, negative = less viability” value was inactive: 2.64%. With `O=C(c1ccccc1)N1CCCC(c2ccc(Cl)cc2)=N1` the Potency was inconclusive [cytotoxic, single point]. With `CCn1nc(C)cc1-c1n[nH]c(=S)n1N` the Potency was inconclusive [rising, single point]. For `Cc1ccccc1OC1(C)CCN(Cc2ccc(-c3ccccn3)cc2)C1` (configuration not stated), the Potency was inconclusive [cytotoxic, single point]. For `O=C(Cc1coc2ccc3ccccc3c12)NC1CCCc2ccccc21` (configuration not stated), the Potency was inconclusive [cytotoxic, partial curve]. For `Cc1cc(C)c(S(=O)(=O)Oc2ccccc2[N+](=O)[O-])c(C)c1`, the Potency was inconclusive [cytotoxic, single point]. For `Cc1ccc(-c2nnc(SCC(=O)Nc3ccc4c(c3)oc3ccccc34)n2C)c(Cl)c1`, the activity, negative = less viability was inconclusive: -3.61% [cytotoxic]. In the case of `COc1ccccc1NC(=O)CN(c1ccc(C23CC4CC(CC(C4)C2)C3)cc1)S(C)(=O)=O`, the Potency is reported as inconclusive [cytotoxic, single point]. For `Cc1ccccc1-n1ncc2c(SCC(=O)NCc3cccs3)ncnc21`, the Potency was inconclusive [cytotoxic, partial curve]. In the case of `CC(OC(=O)c1cc[n+]([O-])cc1)C(=O)Nc1ccc(Cl)cn1` (configuration not stated), the Potency is reported as inconclusive [rising, single point]. For `Cc1ccc(NS(=O)(=O)c2ccc(C(=O)NC3CCN(Cc4ccccc4)CC3)cc2)cc1`, the Potency was inconclusive [cytotoxic, partial curve]. For `O=C(Nc1ccccc1O)c1ccc(NC(=O)C2CC2)cc1`, the Potency was inconclusive [cytotoxic, partial curve]. With `O=[N+]([O-])c1ccc(C=Nc2ccc(Cl)cc2Cl)s1` the Potency was inconclusive [cytotoxic, single point]. For `CC(C)(C)NCC(O)(c1ccc(Cl)cc1)c1ccc(Cl)cc1`, the Potency was active: 13 µM. With `CCOC(=O)N1CCN(C(=O)COC(=O)CN(C)S(=O)(=O)c2ccc(NC(C)=O)cc2)CC1` the “activity, negative = less viability” value was inactive: 12.6%.
